# PubChem BioAssay (NCI)
#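 Dose response: 5 concentrations. Exposure: 48 h. Format: 96-well plates. Endpoint: linear interpolation; highest concentration if not reached. GI50 is the concentration that inhibits growth by half. At the TGI there is no net growth.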
# System: NCI-H322M lung
# Assay: NCI-60 cell line screen, 48 h
Structure (SMILES),GI50 [µM],TGI [µM]
NC(=O)c1c(NC(=O)c2cccc(C(F)(F)F)c2F)sc2c1CCC(=O)C2,> 100,> 100
CCCCCc1ccc(S(=O)(=O)Nc2cccc(-c3csc(NCCN4CCN(C)CC4)n3)c2)cc1,1.81,4.13
CC(C)(C)c1cc(NC(=O)Nc2ccc(-c3cn4c5c(sc4n3)CCc3c[nH]cc3-5)cc2)no1,2.14,> 50
